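Tested at 5 concentrations; 48 h exposure; 96-well plates; endpoints linearly interpolated, else capped at highest concentration. GI50 is the concentration that inhibits growth by half.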 Active and inactive are the calls of the source. Cut-off read from the data, not from the text of the source: active = GI50 up to about 1.1 µM and inactive = higher.
test system: NCI-H322M; test: growth of human tumour cells (NCI), 48 h

Row | Structure (SMILES) | GI50
1 | COc1cc(C=C2C(=O)NC(=S)NC2=O)cc(OC)c1OC | inactive: > 100 µM
2 | O=C1c2ccccc2C(=O)c2c(O)c(NCCCNCCO)cc(O)c21 | inactive: 6.7 µM
3 | Nc1nc(SCc2ccccc2)c2ncn(Cc3ccccc3)c2n1 | inactive: > 100 µM
4 | Cc1ccc(S(=O)(=O)NC(=O)OC23COCN2COC3)cc1 | inactive: > 100 µM
5 | Cc1ccc(S(=O)(=O)c2ccc([N+](=O)[O-])o2)cc1 | inactive: 16.7 µM
6 | Cc1cc(C)n(C(=O)CSc2nnc(SCC(=O)n3nc(C)cc3C)s2)n1 | inactive: > 100 µM
7 | O=C(O)c1ccc([N+](=O)[O-])c2c(=O)c3ccccc3[nH]c12 | inactive: > 100 µM
8 | Cc1ccc(C2NC(=O)c3ccccc3N2)c(C)c1 (stereo unspecified) | inactive: 7.4 µM
9 | Cc1cc(Cl)ccc1NC(=O)C(=O)Cc1ccc([N+](=O)[O-])c([N+](=O)[O-])c1CC(=O)C(=O)Nc1ccc(Cl)cc1C | inactive: > 100 µM
10 | CN(C)C(C1=C(O)C(c2ccccc2)N(c2ccccc2)C1=O)N1CCOCC1 (stereo unspecified) | inactive: > 10 µM
11 | Cc1ccc(/S(Cc2ccccc2)=N\S(=O)(=O)c2ccc(C)cc2)cc1 (stereo unspecified) | inactive: > 100 µM
12 | CO/N=C\c1cc(O)c(O)c(/C=N/OC)c1 | inactive: 44 µM
13 | COc1ccc(C(=C2C(=O)N(c3ccccc3)C(=O)C2=C(C)C)c2ccc(OC)cc2)cc1 | inactive: 7.5 µM
14 | COC1/C=C/C(C)C(C(C)C(OC)C(C)CCC(=O)C(C)C(C/C=C/N(C)C=O)OC)OC(=O)/C=C/C=C(\C)CC(OC)C(OC)C2=CC(=O)O[C@@H](C(C)C(OC)CC(OC)/C=C/C(C)C(O)C1)[C@H]2O (stereo partly specified) | active: 0.343 µM
15 | COCCNC1CCC2(SCCS2)c2[nH]c3ccccc3c21 (stereo unspecified) | inactive: > 100 µM
16 | O=C(Nc1sccc1S(=O)(=O)c1ccc(Cl)cc1)c1ccccc1 | inactive: > 100 µM
17 | Nc1cc2[nH]c(=O)c3cc(Cl)ccc3c2cc1Cl | inactive: 9.82 µM
18 | Clc1cccc(N2CCN(CCCN3CCc4c([nH]c5ccccc45)C3c3cccnc3)CC2)c1 (stereo unspecified) | inactive: > 10 µM
19 | O=C(O)CCCCCCC[C@H]1S[C@H]1CCCCCCO | inactive: > 100 µM
20 | Sc1nnc(CNc2ccc(-c3nnc(S)n3-c3ccc(Cl)cc3)cc2)n1-c1ccc(Cl)cc1 | inactive: 23.3 µM
21 | CC1[C@@H](OCc2ccccc2)COC(=O)N1Cc1ccccc1 (stereo partly specified) | inactive: > 100 µM
22 | C=C[C@H]1CN2CCc3c([nH]c4cc(O)ccc34)[C@@H]2C[C@@H]1C[C@H]1c2[nH]c3ccccc3c2CCN1C | inactive: 4.94 µM
23 | CC1=CC(=O)NP(=O)(C23CC4CC(CC(C4)C2)C3)N1 (stereo unspecified) | inactive: > 100 µM

Row | Structure (SMILES) | GI50
24 | O=C1C2=C(c3ccccc31)C(c1ccc(Cl)cc1)NC(S)=N2 (stereo unspecified) | inactive: 22.6 µM
25 | CC(Cn1c(=O)oc2ccccc21)N(C)C (stereo unspecified) | inactive: > 100 µM
26 | CCOC(=O)c1c(C)n(-c2ccc(C)cc2)c(=O)c2ccccc2c(=O)c2c(=O)ccc(=O)c1=2 | inactive: 20 µM
27 | COC(=O)C12OCC34C(CC5C(C)C6=CC(=O)OC6=CC5(C)C3C(O)C1O)OC(=O)C(O)C24 (stereo unspecified) | inactive: 7.08 µM
28 | O=P(O)(Cc1ccccc1)c1ccccc1-c1ccccc1 | inactive: > 100 µM
29 | COC(=O)c1cc(C)ccc1CC(Cc1cccc(C)c1)C(=O)OC (stereo unspecified) | inactive: > 100 µM
30 | COc1nn(Cc2ccccn2)c2ccc([N+](=O)[O-])cc12 | inactive: > 100 µM
31 | COc1ccc(/C=C2\N=C3N(Cc4ccccc4)C=C(N)N3C2=O)cc1 | inactive: > 100 µM
32 | COc1ccc(N[C@H]([C@@H](c2ccccc2)[S+]([O-])c2ccc(C)cc2)C(F)(F)F)cc1 (stereo partly specified) | inactive: > 100 µM
33 | O=C1O/C(=C\c2ccccc2)N(c2ccccc2)C1=O | inactive: > 100 µM
34 | c1ccc(CN[C@]23C4C5CC6C7C5C2C7[C@@](NCc2ccccc2)(C64)N3Cc2ccccc2)cc1 (stereo partly specified) | inactive: > 100 µM
35 | O=c1cc(-c2ccncc2)[nH]c2cc3c(cc12)OCO3 | inactive: > 100 µM
36 | CCC(c1c[nH]c2ccc(Br)cc12)c1c[nH]c2ccc(Br)cc12 | inactive: 5.36 µM
37 | O=Cc1cccc2ccc3ccccc3c12 | inactive: 20.4 µM
38 | O=c1[nH]nc(Cc2ccc(Cl)cc2)n1/N=C\c1ccc(/C=N/n2c(Cc3ccc(Cl)cc3)n[nH]c2=O)cc1 | inactive: > 100 µM
39 | O=C(CC1(O)C(=O)Nc2c(Cl)cc(Cl)cc21)c1ccco1 (stereo unspecified) | inactive: 69.7 µM
40 | Cc1ccccc1NC(=O)NC(Oc1ccccc1)(C(F)(F)F)C(F)(F)F | inactive: > 100 µM
41 | CCCCC1=C(C(=O)N2CCOCC2)C2(OCCO2)C1=O | inactive: 37.3 µM
42 | O=C(Nc1cc(Cl)c(Cl)cc1Cl)C(=O)C1C=CCS1(=O)=O (stereo unspecified) | inactive: > 100 µM
43 | Cc1cc(O)c(C(C)C)cc1C(=S)Nc1ccc(Cl)cc1 | inactive: 16 µM
44 | N#CC1(C#N)C(c2ccccc2)C=CC(c2ccc([N+](=O)[O-])cc2)C1(C#N)C#N (stereo unspecified) | inactive: 18.5 µM
45 | COc1ccc(NC(=O)CC/C(CC(=O)c2ccccc2Cl)=N\Nc2nnc(C)n2N)cc1 | inactive: > 100 µM
46 | COc1ccc(C[C@@H]2OC3(C=CC(=O)CC3Sc3ccccc3)O[C@H]2Cc2ccc(OC)cc2)cc1 (stereo partly specified) | inactive: 7.78 µM

Row | Structure (SMILES) | GI50
47 | O=C(c1cccs1)N(C(=S)OC12CC3CC(CC(C3)C1)C2)c1ccccc1 | inactive: 35.8 µM
48 | CSC(SC)=C1Sc2cccc(Cl)c2S1 | inactive: > 100 µM
49 | O=c1[nH]c(=O)n(COCc2ccccc2)c2ccccc12 | inactive: > 100 µM
50 | COC(=O)[C@H](COC(C)(C)C)NC(=O)N[C@H](C)c1ccccc1 | inactive: > 100 µM
51 | NC1NCCC(=O)N1CCc1c[nH]c2ccccc12 (stereo unspecified) | inactive: 26.7 µM
52 | CC(=O)OCC1(CNc2nc(N)ncc2C#N)CC(CCc2ccccc2)C1 (stereo unspecified) | inactive: > 100 µM
53 | COC(=O)[C@]1(C)CCCn2c(=O)n(-c3ccccc3)c(=O)n21 | inactive: > 100 µM
54 | OC1CN2CCS[C@H]2C(O)C1O (stereo partly specified) | inactive: > 100 µM
55 | COc1cc(/C=C2\C[C@H]3[C@@H]4CC=C5C[C@@H](OC(C)=O)CC[C@]5(C)[C@H]4CC[C@]3(C)\C2=N\O)cc(OC)c1OC | inactive: 8.55 µM
56 | Cc1ccc(S(=O)(=O)n2cncc2CO)cc1 | inactive: > 100 µM
57 | OC1CSCCSCCCSCCSC1 | inactive: > 100 µM
58 | N#Cc1c(N2CCCC2)ncn(-c2ccccc2)c1=O | inactive: > 100 µM
59 | O=S(=O)(N/N=C/c1cccc(Cl)c1Cl)c1ccccc1 | inactive: > 100 µM
60 | CCOC(=O)CCN1C(=O)C(=O)N(c2ccc(OC)cc2)C1=S | inactive: > 100 µM
61 | CC(C)CCNC(=O)c1ccc(CNC(=O)/C=C/c2ccc(-c3ccccc3[N+](=O)[O-])o2)cc1 | inactive: > 100 µM
62 | Cc1cc(C)nc(NS(=O)(=O)c2ccc(Nc3c4ccccc4nc4c(C(=O)Nc5ccc(S(=O)(=O)N=C(N)N)cc5)ccc(Cl)c34)cc2)n1 | inactive: 23.7 µM
63 | Cn1c(=O)n(C2(C)C[Se]C2)c2ccccc21 | inactive: > 100 µM
64 | COC(=O)/C(C#N)=C(\Nc1ccccc1)N1CCCCC1 | inactive: > 100 µM
65 | N=C1N(/N=C/c2ccccn2)/C(=N\c2ccccc2)C(=S)N1c1ccccc1 | inactive: 11.2 µM
66 | c1ccc(C(NC2CCCCC2NCCNC2CCCCC2NC(c2ccccc2)(c2ccccc2)c2ccccc2)(c2ccccc2)c2ccccc2)cc1 (stereo unspecified) | inactive: > 100 µM
67 | O=C1Cc2cn[nH]c2-c2ccccc2N1 | inactive: > 86.9 µM
68 | C=C1C(=O)OC2CC(C)C3C=CC(=O)C3CC12 (stereo unspecified) | inactive: 7.28 µM
69 | O=c1oc2ccccc2c(O)c1C(C/C(CCN1CCCC1)=N\Nc1ccccc1)c1ccccc1 (stereo unspecified) | inactive: > 100 µM

Row | Structure (SMILES) | GI50
70 | O=C(O)CCC(NC(=O)c1ccc(Nc2nc3ccccc3nc2C(=O)O)cc1)C(=O)O (stereo unspecified) | inactive: > 100 µM
71 | COc1ccc2c3c1O[C@]1(C)C34CCN(C)C(C2)C42C=C[C@@]1(OC)c1c(O)ccc(O)c12 | inactive: > 100 µM
72 | OC1C2CCC3C2CC(C(O)(c2ccccc2)c2ccccc2)C13 (stereo unspecified) | inactive: 58.7 µM
73 | COC(=O)/C(C#N)=C1\NN=NN1CCCc1ccccc1 | inactive: > 100 µM
74 | O=[N+]([O-])/C(C(Cl)=C(Cl)Cl)=C(/Nc1ccccc1)SCc1ccccc1 | inactive: 29.4 µM
75 | C=C(CS(=O)(=O)c1ccccc1)[P+](c1ccccc1)(c1ccccc1)c1ccccc1 | inactive: 32.4 µM
76 | CC1CC2=C(C1)C(C1(C)C(=O)CC3C(C1=O)C3(C)C)C(C)C2=O (stereo unspecified) | inactive: > 100 µM
77 | Brc1c(C#CCC(c2ccccc2)(c2ccccc2)c2ccccc2)ccc(C#CCC(c2ccccc2)(c2ccccc2)c2ccccc2)c1Br | inactive: > 100 µM
78 | O=C(CC1(O)C(=O)Nc2ccccc21)c1ccc(O)cc1 (stereo unspecified) | inactive: > 100 µM
79 | CSc1nc(=O)n(CCC#N)nc1SC | inactive: > 100 µM
80 | O=C(Nc1cnc(O)nc1O)C(Cl)Cl | inactive: > 100 µM
81 | CC(C)(C)N(Cc1ccccc1)C(=O)/C=C\[S+]([O-])c1ccccc1 (stereo unspecified) | inactive: 13.7 µM
82 | Cc1nc(Nc2nc3ccccc3[nH]2)[nH]c(=O)c1CCO | inactive: > 100 µM
83 | CCc1cccc(C(C)C)c1NC(=O)C(=O)C(CC(=O)Nc1ccc(Cl)c(Cl)c1)C(=O)OC (stereo unspecified) | inactive: > 100 µM
84 | O=c1[nH]nc(Cc2ccccc2)n1/N=C/c1cccnc1 | inactive: > 100 µM
85 | CCCCCCCCCCCCCS(=O)(=O)O | inactive: > 100 µM
86 | CN(C)CCOC1(Cc2ccc(Cl)cc2Cl)CCC(C(C)(C)C)CC1 (stereo unspecified) | inactive: 1.87 µM
87 | COc1cccc2c1[C@H]1CO[C@H]3C4C[C@H](C(=O)O)C([C@@H](C2)N13)N4C (stereo partly specified) | inactive: 5.7 µM
88 | COC(=O)CNC(=O)CCC(C)[C@H]1CCC2C3C(C[C@H](OC(C)=O)[C@@]21C)[C@@]1(C)CCC2(C[C@H]1C[C@H]3OC(C)=O)OOC1(CC[C@]3(C)C4C[C@H](OC(C)=O)[C@@]5(C)C(CC[C@@H]5C(C)CCC(=O)NCC(=O)OC)C4[C@H](OC(C)=O)C[C@@H]3C1)OO2 (stereo partly specified) | inactive: 14.1 µM
89 | Cn1c(=O)nc2n(-c3ccc(Br)cc3)c3ccccc3nc-2c1=O | inactive: 5.61 µM
90 | CC(C)=Cc1cc2c(cc1O)CCC1C2CC[C@@]2(C)C1CC[C@@H]2O (stereo partly specified) | inactive: 5.33 µM
91 | Cc1ccc2nc(-c3ccc(C(C)(C)C)cc3)oc(=O)c2c1 | inactive: 45.4 µM
